According to PubChem BioAssay AID686970 (National Center for Advancing Translational Sciences (NCATS), 2013):
Hit rate of the full screen: of about 360,000 compounds, about 6,000 (1.7%) were called active. The inconclusive results got no clear call from the source; some entries with a clear call stand among them for comparison. Calls follow the shape of the dose curve; as a rule, active = well fitted cell-killing curve with a large enough effect; inconclusive = small, poorly fitted or top-dose-only effect, or effect the other way; inactive = flat fitted curve, though single readings scatter. No potency is given beside an inconclusive call; the fits are too rough.
Potency is read from the fitted curve at half-maximal effect; tags tell the direction and shape of the fitted curve.

Test: qHTS for induction of synthetic lethality in tumor cells producing 2HG: qHTS for the HT-1080-NT fibrosarcoma cell line;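 also: NT is the 2HG producing partner of a matched IDH1 knockdown line; nearly all actives have a fitted effect of over 55% in size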;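 as to activity, negative = less viability: 0% = DMSO-treated cells and -100% = media-only wells without cells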
Conditions: HT-1080-NT fibrosarcoma viability, CellTiter-Glo ATP luminescence, 48 h; activity, negative = less viability: at 46.1 µM (top of the series) unless noted
Outline: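 Viability by CellTiter-Glo luminescence after 48 h compound exposure at 37C of HT-1080-NT cells (750/well, RPMI, 5% FBS). % activity scaled between DMSO wells and medium-only wells, then curve-fitted and categorized by curve class.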
For `CCNS(=O)(=O)c1ccc(CCC(=O)N2CCc3ccccc3C2)cc1`, the “activity, negative = less viability” value was inactive: 7.63%.
With `Cc1cccc2cc3c(NC(=O)c4ccccn4)nn(C)c3nc12` the Potency was inconclusive [cytotoxic, partial curve].
For `COc1ccc(-c2c[n+](CC(=O)OC3CC(C)CCC3C(C)C)c3n2CCC3)cc1` (configuration not stated), the Potency was active: 18.4 µM.
With `CC(SCc1ccccc1)C(=O)Nc1ccc2c(c1)OCO2` (configuration not stated) the “activity, negative = less viability” value was inactive: 5.42%.
With `Cc1ccc(-c2nc3ncccn3c2N)cc1` the “activity, negative = less viability” value was inactive: 18.7%.
In the case of `CSc1nnc(-c2sc3cc(Cl)ccc3c2Cl)n1C`, the “activity, negative = less viability” value is reported as inactive: 0.28%.
For `COc1ccc(S(=O)(=O)N(CC(=O)NCc2ccncc2)c2ccc(C)cc2)cc1Br`, the “activity, negative = less viability” value was inactive: -12.9%.
For `CN(C)/C=C/C(=O)c1ccc2noc(-c3ccccc3)c2c1`, the Potency was inconclusive [rising, single point].
With `CCCCCC(O)(CCCCC)C(=O)NNc1ccccc1` the Potency was inconclusive [cytotoxic, full curve].
For `CC(=O)C1CCC2C3CC(C)=C4CC(O)CCC4(C)C3CCC12C` (configuration not stated), the Potency was inconclusive [cytotoxic, single point].
In the case of `Cc1ccc(S(=O)(=O)N2CCOCC2)cc1C(=O)N1CCN(c2ccc(C(F)(F)F)cn2)CC1`, the Potency is reported as inconclusive [cytotoxic, single point].
For `Nc1nnnn1/N=C/c1ccccc1`, the “activity, negative = less viability” value was inactive: -3.24%.
For `CCOc1ccc(C(=O)CCN2CCCCC2)cc1`, the Potency was inconclusive [cytotoxic, single point].
For `CCN1CCc2c(sc(N)c2C(N)=O)C1`, the “activity, negative = less viability” value was inactive: -6.6%.
For `COC(=O)c1ccccc1SC(CC(=O)c1ccccc1)c1ccc(F)cc1` (configuration not stated), the Potency was inconclusive [cytotoxic, single point].
With `CN(C)c1nc(C=C(C#N)C#N)c(Cl)n1-c1ccc(F)cc1` the Potency was active: 7.31 µM.
In the case of `COc1ccc(-n2nc([N+](=O)[O-])c(=NCCc3ccc(Cl)cc3)n2O)cc1`, the “activity, negative = less viability” value is reported as inactive: 3.86%.
In the case of `COc1ccc(Cl)c(-c2cc(C(=O)NC(C)C)[nH]n2)c1`, the activity, negative = less viability is reported as inconclusive: 31.8%.
In the case of `Cc1cc(NCCCn2ccnc2)n2ncc(-c3ccc(Cl)cc3)c2n1`, the Potency is reported as active: 11.2 µM.
For `Cc1ccc2c(c1)S/C(=C/c1ccc[n+](C)c1)N2CCO`, the Potency was inconclusive [cytotoxic, single point].
In the case of `CCOc1ccc(C2c3[nH]c4ccccc4c3CCN2Cc2cccn2-c2ncccn2)cc1` (configuration not stated), the Potency is reported as inconclusive [cytotoxic, partial curve].
For `COc1ccc(OC)c(Cc2nnc(CCC(=O)NCc3ccc(C)s3)o2)c1`, the “activity, negative = less viability” value was inactive: 1.5%.
In the case of `NC(Cc1ccc(Cl)cc1)c1csc(Nc2ccc(S(N)(=O)=O)cc2)n1` (configuration not stated), the Potency is reported as inconclusive [cytotoxic, single point].
In the case of `COc1ccc(S(=O)(=O)Nc2ccc(S(=O)(=O)NCC3CCCO3)cc2)cc1` (configuration not stated), the “activity, negative = less viability” value is reported as inactive: 2.08%.
In the case of `Cc1c(Cl)cccc1NC(=O)Cn1nnc(C(=O)NCc2cccs2)c1N`, the activity, negative = less viability is reported as inconclusive: -0.963% [cytotoxic].
For `CCCCCCCCN1C(=O)[C@H](CC(=O)N2CCOCC2)C[C@@]2(C(=O)OC)CC(C)(C)CC=C12`, the Potency was inconclusive [cytotoxic, single point].
In the case of `CCc1nc(CN2CCN(c3ccc(C(F)(F)F)cn3)CC2)c(C)[nH]1`, the Potency is reported as inconclusive [cytotoxic, single point].
In the case of `NC(c1csc(Nc2ccc(C(=O)NCCO)cc2)n1)C1CCCCC1` (configuration not stated), the “activity, negative = less viability” value is reported as inactive: -13.5%.
In the case of `COc1ccccc1CNC(=O)Cn1cccc1C(=O)c1ccccc1`, the “activity, negative = less viability” value is reported as inactive: 12.8%.
In the case of `CC(C)(CNC(=O)c1sc2cc(Cl)ccc2c1Cl)N1CCOCC1`, the “activity, negative = less viability” value is reported as inactive: -10%.
In the case of `Nc1ccccc1-n1c(=O)n(Cc2ccccc2F)c(=O)c2[nH]cnc21`, the “activity, negative = less viability” value is reported as inactive: -0.904%.
For `COC(=O)c1c(-c2ccccc2)csc1NC(=O)c1ccco1`, the “activity, negative = less viability” value was inactive: -0.354%.
For `COc1cc(C(=O)Nc2ccc(S(=O)(=O)N3CCOCC3)cc2)c([N+](=O)[O-])cc1OC`, the “activity, negative = less viability” value was inactive: 3.71%.
In the case of `CCc1ccc(-c2csc(-c3c[nH]c4ccccc34)n2)cc1`, the Potency is reported as inconclusive [cytotoxic, single point].
For `CCOC(=O)N1CCN(C(=O)CSc2ccc3nnc(CCNC(=O)c4ccc(OC)cc4)n3n2)CC1`, the Potency was inconclusive [rising, single point].
With `O=[N+]([O-])c1ccc(N2CCN(c3ccc(O)cc3)CC2)cn1` the Potency was inconclusive [cytotoxic, partial curve].
With `COc1ccc(-n2nnc3c(SCC(=O)N4CCCc5ccccc54)ncnc32)cc1` the Potency was inconclusive [rising, partial curve].
With `O=C1CC(SC(=Nc2ccccc2)Nc2ccccc2)C(=O)N1c1ccc(Cl)cc1` (configuration not stated) the “activity, negative = less viability” value was inactive: -13.4%.
In the case of `Cc1cccc(CN2CCCC(C(=O)c3ccc4c5c(cccc35)CC4)C2)n1` (configuration not stated), the Potency is reported as inconclusive [cytotoxic, partial curve, poor fit].
In the case of `Oc1ccc(/C=N/Nc2cc(N3CCCC3)nc(N3CCCC3)n2)cc1`, the Potency is reported as inconclusive [cytotoxic, partial curve].
For `Cc1occc1C(=O)NNC(=S)NCC(C)C`, the “activity, negative = less viability” value was inactive: 1.03%.
In the case of `O=C(N/N=C/c1ccc2c(c1)OCO2)C1COc2ccccc2O1` (configuration not stated), the Potency is reported as inconclusive [cytotoxic, single point].
For `O=C(c1ccc(S(=O)(=O)Cc2ccccc2Cl)c([N+](=O)[O-])c1)N1CCN(c2ccccn2)CC1`, the Potency was inconclusive [cytotoxic, single point].
In the case of `Cc1ccc2c(c1)C=CC(C#N)N2C(=O)c1ccccc1` (configuration not stated), the Potency is reported as active: 1.64 µM.
In the case of `O=C(CSc1ncc(C(F)(F)F)cc1Cl)N1CCN(S(=O)(=O)c2ccc(Cl)cc2)CC1`, the Potency is reported as inconclusive [cytotoxic, single point].
In the case of `COc1cc(CN2C[C@@H](CO)O[C@@H](n3cnc4c(NCCN(C)C)ncnc43)C2)cc(OC)c1OC`, the Potency is reported as inconclusive [rising, single point].
With `Nc1nnc(C(=O)c2ccccc2N)s1` the Potency was inconclusive [cytotoxic, single point].
In the case of `Cc1cc(C(=O)COc2ncnc3sccc23)c(C)n1C1CC1`, the Potency is reported as inconclusive [cytotoxic, single point].
For `Cc1ccc2nc(-c3ccccn3)oc2c1`, the Potency was inconclusive [cytotoxic, partial curve].
With `COc1ccc(N(CCCN2C(=O)c3cccc4cccc(c34)C2=O)C(=O)c2ccncc2)cc1` the Potency was inconclusive [cytotoxic, single point].
For `O=C(NC1CCCCC1)C1(S(=O)(=O)c2ccc(Cl)cc2)CC1`, the “activity, negative = less viability” value was inactive: 0%.
For `CC(=O)N1CCC2(CC1)NC(=O)N(c1ccccc1)N2`, the Potency was active: 5.17 µM.
For `CC(C)(C)c1ccccc1OCC(=O)Nc1ccccc1C(=O)NCc1cccnc1`, the Potency was inconclusive [cytotoxic, partial curve, poor fit].
In the case of `COc1ccccc1N1CCN(c2ccnc3cc(Cl)ccc23)CC1`, the Potency is reported as active: 3.66 µM.
In the case of `COc1cc(OC)cc(C(=O)Nc2ccn(C)n2)c1`, the “activity, negative = less viability” value is reported as inactive: 6.72%.
In the case of `O=C(NCc1ccccn1)c1coc(=O)c(Br)c1`, the Potency is reported as inconclusive [cytotoxic, single point].
With `O=C(CCN1C(=O)/C(=C\c2ccccc2)SC1=S)NNC(=O)c1ccccc1O` the Potency was inconclusive [cytotoxic, single point].
With `CCCc1[nH]n(-c2ccc(F)cc2)c(=O)c1C=Nc1cccc(F)c1` the Potency was active: 7.31 µM.
In the case of `Cc1ccc(Cl)cc1N1CCN(C(=O)C2CCN(S(=O)(=O)c3cccnc3)CC2)CC1`, the Potency is reported as inconclusive [cytotoxic, single point].
In the case of `CN(C)S(=O)(=O)c1ccc(Nc2nc(C3CC3)nc3c2nnn3Cc2ccccc2Cl)cc1`, the Potency is reported as inconclusive [cytotoxic, full curve].
In the case of `O=C1C(Cl)=C(NCCc2ccccc2)C(=O)c2ccccc21`, the Potency is reported as active: 9.2 µM.
For `Cc1ccc(SCC(=O)NCc2ccccc2)cc1`, the “activity, negative = less viability” value was inactive: 1.38%.
With `C/C(=N\NC(=O)c1ccccc1OCCOc1ccccc1)c1ccccc1F` the Potency was inconclusive [cytotoxic, single point].
For `O=C(CSc1nc2nc(-c3cccs3)cc(C(F)(F)F)c2c(=O)[nH]1)Nc1ccc(F)c(F)c1`, the Potency was inconclusive [cytotoxic, partial curve, poor fit].
In the case of `COC(=O)CC(=O)CSc1nc2c(cc1C#N)CCC2`, the Potency is reported as inconclusive [cytotoxic, single point].
With `Cc1ccc(N(C(=O)c2nsc(Cl)c2Cl)C(C(=O)NC2CCCC2)c2ccc(O)cc2)cc1C` (configuration not stated) the Potency was inconclusive [cytotoxic, single point].
For `Cc1ccc(NC(=O)N2CCCC2C(=O)NCC2CCCO2)cc1` (configuration not stated), the Potency was inconclusive [rising, single point].
In the case of `CCOc1ccc(CCN2C(=O)C(=O)N([C@@H](Cc3ccccc3)CN3CCC[C@H]3CN3C(=O)C(=O)NC[C@@H]3Cc3ccccc3)C[C@@H]2Cc2ccccc2)cc1`, the Potency is reported as inconclusive [cytotoxic, single point].
With `Cn1cc(C(=O)N/N=C/c2c(O)ccc3ccccc23)ccc1=O` the Potency was inconclusive [cytotoxic, full curve].
With `O=C(Oc1ccc(Cl)c2cccnc12)c1ccco1` the Potency was inconclusive [cytotoxic, single point].
With `CCc1nc2ccc(C(=O)N(C)CC(=O)Nc3ccc(Cl)c(C(F)(F)F)c3)cc2nc1CC` the Potency was inconclusive [cytotoxic, single point].
With `COc1cc(NC(=S)NCCc2c[nH]c3ccccc23)c(OC)cc1Cl` the Potency was inconclusive [cytotoxic, partial curve].
